PubChem BioAssay AID686979 (National Center for Advancing Translational Sciences (NCATS), 2013)
Hit rate of the full screen: of about 420,000 compounds, about 50,000 (12%) were called active. Inconclusive results, whose numbers are uncertain, are shown with a selection of clear calls. The call rests on the fitted dose curve; in most records, active means well fitted inhibition curve with a large enough effect; inconclusive means small, poorly fitted or top-dose-only effect; inactive means flat fitted curve, though single readings scatter. No potency is given beside an inconclusive call; the fits are too rough.

experiment: qHTS for Inhibitors of human tyrosyl-DNA phosphodiesterase 1 (TDP1): qHTS in cells in presence of CPT; details: chicken DT40 Tdp1-/-;hTDP1 cells + 20 nM CPT, ATP luminescence, 48 h; activity change, negative = growth inhibition: at 46.2 µM (top of the series) unless noted; further: nearly all actives have a fitted effect of over 55% in size
How it was run: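 Chicken DT40 Tdp1-/- cells complemented with human TDP1, 400 cells/well, exposed to compounds plus 20 nM camptothecin for at least 48 h at 37 C; viability read as ATP content by CellTiter-Glo luminescence.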
On the % scale 0 is the no-effect control and ±100 the full control effect; potency means the concentration at half of the fitted maximal effect; tags describe the fitted curve by direction and shape.

Structure (SMILES)	Potency	activity change, negative = growth inhibition
COc1ccc(OC)c(C(=O)CC2(O)C(=O)N(Cc3ccccc3C)c3ccccc32)c1 (stereo not drawn)	active: 16.4 µM	–
O=C(COc1ccc(/C=N/NC(=O)C(=O)N2CCCCCC2)cc1)Nc1ccccc1Cl	inconclusive [inhibitor, single point]	–
CCOC(=O)c1cc(-c2sc(NC(=O)c3ccccc3)nc2C)n(CCO)n1	inconclusive [inhibitor, partial curve]	–
COc1ccccc1CNC(=O)Cn1c(=O)nc(-c2ccccc2F)c2cc(Cl)ccc21	inconclusive [inhibitor, full curve]	–
Cc1ccc(-n2c(=O)c3cccnc3n2CC(=O)Nc2cc(C)cc(C)c2)cc1	inconclusive [inhibitor, single point]	–
C#CCSc1nncn1C(=O)/C=C/c1ccccc1	active: 13 µM	–
Cc1ccc(S(=O)(=O)Nc2ccc3c(c2)nc(CCN2CCN(c4ccccn4)CC2)n3C)cc1	inconclusive [inhibitor, single point]	–
COc1ccc(C(=O)COC(=O)c2cc([N+](=O)[O-])ccc2N2CCOCC2)c(OC)c1	inconclusive [inhibitor, single point]	–
COC(=O)c1ccc(S(=O)(=O)N2CCN(C(c3ccccc3)c3ccccc3)CC2)n1C	inconclusive [inhibitor, single point]	–
CC(C)c1ccc(NC(=O)Cn2c(=O)n(CC3CCC(C(=O)NCCc4ccccc4)CC3)c(=O)c3ccccc32)cc1 (stereo not drawn)	active: 16.4 µM	–
O=C(NC1CC1)c1ccc(C2SCC(=O)N2Cc2ccccc2)cc1 (stereo not drawn)	–	inactive: -20.9%
Cc1c(C(=O)N2CCOCC2)oc2c1-c1nn(CC(=O)NCc3cccc(F)c3)cc1CC2	inconclusive [inhibitor, partial curve]	–
COC(=O)c1ccc(Cl)cc1NC(=O)NCCc1c(C)nn(C)c1C	inconclusive [inhibitor, single point]	–
COC(=O)C1=C(C)N(CCCC(=O)O)C(=O)NC1c1ccc(C#N)cc1 (stereo not drawn)	–	inactive: -12.6%
Cc1cccc(N2CCN(C(=O)CCn3c(=S)[nH]c4cc5c(cc4c3=O)OCO5)CC2C)c1 (stereo not drawn)	active: 16.4 µM	–
CC(C)(C)C1CCc2c(sc(NC(=O)Cn3nnc(-c4ccccc4Cl)n3)c2C#N)C1 (stereo not drawn)	–	inactive: -9.29%
COc1ccc(-c2cc(NC(C)=O)c3ncc(-c4ccccc4)n3c2)cc1OC	inconclusive [inhibitor, partial curve, poor fit]	–
Cc1cc(OCC(=O)N(C(C)C)C(C)C)cc(C)c1Br	inconclusive [inhibitor, single point]	–
CCc1nc(NCCCn2ccnc2)c2oc3ccccc3c2n1	inconclusive [inhibitor, single point]	–
OCCNc1nc(Nc2ccccc2)nc2ccccc12	active: 10.3 µM	–
CCOC(=O)c1c(-c2ccc(C)o2)csc1NC(=O)CN1CCCCC1	inconclusive [inhibitor, single point]	–
CC1(C)C(=O)C=C[C@@]2(C)C1C=C[C@@]1(C)C2CC[C@@]2(C)C(c3ccoc3)OC(=O)C3OC312 (stereo partly drawn)	active: 16.4 µM	–

Structure (SMILES)	Potency	activity change, negative = growth inhibition
Clc1ccccc1-c1nnc2sc(-c3ccc4c(c3)OCO4)nn12	active: 16.4 µM	–
C/C(=C\c1cccs1)C(=O)c1c(C)cc(C)[nH]c1=O	–	inactive: -0.426%
COc1ccc(-n2ccnc2SCC(=O)Nc2ccc3c(c2)OCO3)cc1	inconclusive [inhibitor, single point]	–
Cc1ccccc1OCCn1cc(C(=O)C(=O)N2CCOCC2)c2ccccc21	–	inactive: -7.84%
O=C1c2ccccc2CCC1C(O)c1ccccn1 (stereo not drawn)	–	inactive: -3.02%
Cc1cccc(C)c1-n1c(C)nn(Cc2ccc([N+](=O)[O-])cc2)c1=O	–	inactive: -3.12%
S=C(NC12CC3CC(CC(C3)C1)C2)N1CCCC1	inconclusive [inhibitor, single point]	–
Cc1cccc(N2CCN(C(=O)CS(=O)(=O)c3cccc4nsnc34)CC2)c1C	active: 16.4 µM	–
CSc1nc2nccc(/C=C\c3ccccc3)n2n1	inconclusive [inhibitor, single point]	–
O=C(CCCCl)NC(=S)Nc1cc(C(F)(F)F)ccc1N1CCOCC1	inconclusive [inhibitor, single point]	–
CC(=O)Nc1ccc(/C=C/c2ccnc3ccccc23)cc1[N+](=O)[O-]	active: 1.41 µM	–
CCc1ccccc1NS(=O)(=O)c1ccc2[nH]cc(C(=O)N(CC(C)C)CC(C)C)c(=O)c2c1	inconclusive [inhibitor, single point]	–
COc1ccc(CC(=O)Nc2sc3c(c2C#N)CC(C)(C)NC3(C)C)cc1OC	inconclusive [inhibitor, single point]	–
COc1cc(C)ccc1OCCCOc1ccccc1Cl	inconclusive [inhibitor, single point]	–
CCNC(=O)C1CCCN(C(=O)c2cccc(C(F)(F)F)c2)CC1 (stereo not drawn)	–	inactive: -14.2%
C=CC[N@@+]12CC[C@]34c5ccccc5N5/C=C6\C7N(/C=C(\C53)[C@@H](C[C@@H]41)/C(=C/CO)C2)c1ccccc1[C@@]71CC[N@@+]2(CC=C)C/C(=C\CO)[C@@H]6C[C@@H]12 (stereo partly drawn)	–	inactive: 1.1%
Cc1cc(Cl)ccc1C(=O)C1CCCN(C(=O)c2cc(C(C)C)no2)C1 (stereo not drawn)	inconclusive [inhibitor, single point]	–
CCN(C1CCCCC1)S(=O)(=O)c1cc(C)ccc1OC	inconclusive [inhibitor, single point]	–
COc1cccc(N/C(SCc2ccccc2F)=C(/C#N)C(=O)NCc2cccs2)c1	inconclusive [inhibitor, single point]	–
NC(=O)c1ccc(Nc2nc(C(N)COCc3ccccc3)cs2)cc1 (stereo not drawn)	inconclusive [inhibitor, single point]	–
Cc1ccc(-c2nc(S(=O)(=O)c3ccccc3)c(N3CCN(c4ccccc4)CC3)o2)cc1	inconclusive [inhibitor, single point]	–
